# The supplement of paper PMC11369174, “Proteome-scale characterisation of motif-based interactome rewiring by disease mutations” (Molecular Systems Biology, 2024)
# This is one part of the list. Single values of this set are uncertain.
# T1: GRAP2_SH3_2_O75791_274_329
# T1 chain: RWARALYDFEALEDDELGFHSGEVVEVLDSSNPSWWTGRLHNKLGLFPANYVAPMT
# T2: AP1G2_GAE__O75843_665_785
# T2 chain: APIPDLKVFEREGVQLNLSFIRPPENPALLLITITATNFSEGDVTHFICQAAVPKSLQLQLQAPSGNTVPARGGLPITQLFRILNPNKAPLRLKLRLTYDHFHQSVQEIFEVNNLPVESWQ
# T3: CLTC_Clathrin-propeller__Q00610_1_364
# T3 chain: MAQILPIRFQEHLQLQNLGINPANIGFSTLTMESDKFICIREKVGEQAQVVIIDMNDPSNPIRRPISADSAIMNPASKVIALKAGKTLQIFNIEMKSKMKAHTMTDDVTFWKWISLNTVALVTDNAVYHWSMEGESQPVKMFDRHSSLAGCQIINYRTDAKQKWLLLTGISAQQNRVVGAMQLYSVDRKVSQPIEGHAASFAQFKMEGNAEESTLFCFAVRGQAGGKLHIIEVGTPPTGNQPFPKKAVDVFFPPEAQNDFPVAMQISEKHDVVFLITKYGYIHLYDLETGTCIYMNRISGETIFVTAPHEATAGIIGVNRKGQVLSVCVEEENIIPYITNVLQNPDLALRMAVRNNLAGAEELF
# T4: AP2B1_adaptin__P63010_700_937
# T4 chain: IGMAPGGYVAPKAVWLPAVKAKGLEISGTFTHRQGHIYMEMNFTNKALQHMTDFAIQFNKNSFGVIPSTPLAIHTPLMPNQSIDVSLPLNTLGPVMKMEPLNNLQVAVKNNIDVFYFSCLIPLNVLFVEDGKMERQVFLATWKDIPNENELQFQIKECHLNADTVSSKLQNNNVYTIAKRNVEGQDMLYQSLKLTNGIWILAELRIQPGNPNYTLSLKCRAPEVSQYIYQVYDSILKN
# T5: PEX14_Pex14__O75381_16_84
# T5 chain: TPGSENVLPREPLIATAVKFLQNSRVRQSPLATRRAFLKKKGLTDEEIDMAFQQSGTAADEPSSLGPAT
# T6: CSK21_Pkinase__P68400_1_335
# T6 chain: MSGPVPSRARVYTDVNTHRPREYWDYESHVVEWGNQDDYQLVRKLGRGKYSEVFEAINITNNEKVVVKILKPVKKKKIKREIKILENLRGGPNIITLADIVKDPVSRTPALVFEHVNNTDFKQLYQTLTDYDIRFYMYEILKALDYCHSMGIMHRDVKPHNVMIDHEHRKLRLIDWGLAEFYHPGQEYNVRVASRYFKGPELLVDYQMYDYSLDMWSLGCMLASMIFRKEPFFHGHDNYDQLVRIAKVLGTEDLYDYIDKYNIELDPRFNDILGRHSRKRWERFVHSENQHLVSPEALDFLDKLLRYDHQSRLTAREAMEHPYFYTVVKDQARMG
# Key:
# Test in all cases: mutation enrichment score (mutant vs wild-type peptide binding to bait); baits are purified protein domains named by gene / domain / UniProt id / residues; peptides come from disordered regions of human proteins; higher = mutation enhances binding relative to wild type
# [1] = molecular target: ALYREF_RRM__Q86V81_78_183; settings: number of wild-type / mutant comparisons summed (bounds the score): 6; paper call: no_effect; wild-type window: …
# [2] = molecular target: T1, GRAP2_SH3_2_O75791_274_329; settings: number of wild-type / mutant comparisons summed (bounds the score): 6; paper call: no_effect; wild-type window: …
# [3] = molecular target: Intersectin-1_SH3_1_Q15811_740_806; settings: number of wild-type / mutant comparisons summed (bounds the score): 6; paper call: no_effect; wild-type window: …
# [4] = molecular target: Intersectin-1_SH3_3_Q15811_1002_1060; settings: number of wild-type / mutant comparisons summed (bounds the score): 6; paper call: no_effect; wild-type window: …
# [5] = molecular target: Intersectin-1_SH3_5_Q15811_1155_1214; settings: number of wild-type / mutant comparisons summed (bounds the score): 6; paper call: no_effect; wild-type window: …
# Src_SH3__P12931_87_144 = settings: number of wild-type / mutant comparisons summed (bounds the score): 6; paper call: no_effect; wild-type window: …
# [6] = molecular target: T2, AP1G2_GAE__O75843_665_785; settings: wild-type window: …
# [7] = molecular target: T3, CLTC_Clathrin-propeller__Q00610_1_364; settings: number of wild-type / mutant comparisons summed (bounds the score): 6; paper call: no_effect; wild-type window: …
# [8] = molecular target: CREBBP_NCBD__Q92793_2062_2109; settings: number of wild-type / mutant comparisons summed (bounds the score): 15; paper call: enhanced; wild-type window: …
# [9] = molecular target: T4, AP2B1_adaptin__P63010_700_937; settings: number of wild-type / mutant comparisons summed (bounds the score): 6, wild-type window: …
# [10] = molecular target: T5, PEX14_Pex14__O75381_16_84; settings: number of wild-type / mutant comparisons summed (bounds the score): 6; paper call: no_effect; wild-type window: …
# [11] = molecular target: T6, CSK21_Pkinase__P68400_1_335; settings: number of wild-type / mutant comparisons summed (bounds the score): 6; paper call: no_effect; wild-type window: …
# [12] = number of wild-type / mutant comparisons summed (bounds the score): 6, paper call: no_effect
# [13] = number of wild-type / mutant comparisons summed (bounds the score): 12, paper call: no_effect
binder,measurement,setting,value
KDRTKGPAEAELPEDPSMMGWLGKVEKQVLSMEKKLDFLVN [R622W R622W],mutation enrichment score,[1],-3
MMQALLGARAKESLDLRAHLNQVKKEDTEKENREVGDWRKN [K174N K174N],mutation enrichment score,[1],3
SDDVSEVDARHIIENAKQDVNDEYGVSQALARGLQSYYAVA [D715N D715N],mutation enrichment score,[1],-4.7
VETLQTLQKKEIEDLYSRLGEQPPPGIVAPAAMLSSRQRRL [K1169E K1169E],mutation enrichment score,[1],4
MLYLEDYLEMIEQLPMDLRDGFTEMREMDLQVQNAMDQLE [D20G D20G],mutation enrichment score,[1],-4
QGTTSRAGHLAGPEPAPPPPLPPREPFAPSLGSAFHLPDAP [P224L P224L],mutation enrichment score,[1],-2
same,mutation enrichment score,[2],5
same,mutation enrichment score,[3],6
same,mutation enrichment score,[4],6
same,mutation enrichment score,[5],-3.2
same,mutation enrichment score,Src_SH3__P12931_87_144,5.9
QLITVREEAWKTRGRGAANDWTQFTVAGRMVKKGLASPTAI [S1209W S1209W],mutation enrichment score,"[6]; number of wild-type / mutant comparisons summed (bounds the score): 6, paper call: enhanced",6
GSLVAGWSGGGPTIETLELQTERSAVAWVWFQNRRAKWRKM [S342T S342T],mutation enrichment score,[6]; [12],5.1
GGGPTIETLELQSERSAVAWLWFQNRRAKWRKMEKLNGKES [V350L V350L],mutation enrichment score,[6]; [12],-5.7
GTNMTYGTSPSGLNMGELIAWMVRNMDNSLLQDSDLDPRGS [R289W R289W],mutation enrichment score,[6]; [12],6
same,mutation enrichment score,[7],6
same,mutation enrichment score,[8],11
SFQGKESIFGDNMNELQTFVTNRQKDNLNNYVFQGQHPLTL [A968T A968T],mutation enrichment score,[6]; [12],4
SLLCNLIGFVYPAYASIKAIKSPSKDDDTVWLTYWVVYALF [E75K E75K],mutation enrichment score,[6]; [12],-3.1
QGADAHSKELNKLPLPSKSVGWTHFGGSPPSDEIRTLRDQL [D675G D675G],mutation enrichment score,"[6]; number of wild-type / mutant comparisons summed (bounds the score): 12, paper call: diminished",-7
DLIAKVQADEQFGIWLDSSSLEQTVPYLWSEETPATPIGQA [P3966L P3966L],mutation enrichment score,[6]; [13],-5
DLIAKVQADEQFGIWLDSSSREQTVPYLWSEETPATPIGQA [P3966R P3966R],mutation enrichment score,[6]; [13],-3.7
KLEDQLVQQEAAQQQQALASCQQWVADGPGILNEPGEVDSE [W1047C W1047C],mutation enrichment score,"[6]; number of wild-type / mutant comparisons summed (bounds the score): 18, paper call: diminished",-14
VRSDVWSLGITLYELATGRFRYPKWNSVFDQLTQVVKGDPP [P306R P306R],mutation enrichment score,[9]; paper call: diminished,-6
same,mutation enrichment score,[10],-5
ATGRFPYPKWNSVFDQLTQVEKGDPPQLSNSEEREFSPSFI [V321E V321E],mutation enrichment score,[9]; paper call: diminished,-6
same,mutation enrichment score,[10],-5
SESRISEWTFQPFTNHSVDGQQRGASPRLWDIKVQGPPMFQ [P118Q P118Q],mutation enrichment score,[9]; paper call: diminished,-6
ADWLSHYWMPKWINATDPSACTLTHYKSAVKA [R550C R550C],mutation enrichment score,[9]; paper call: enhanced,6
PQEKQVHKSILPNSLGVSERWQRLTFPAVSVKVNGHDQGQN [L785W L785W],mutation enrichment score,[9]; paper call: enhanced,6
AVLSYLKFFNCQKHSPFSLSCWFWLTLTGVACSCAVGIKYM [W186C W186C],mutation enrichment score,[9]; paper call: enhanced,6
same,mutation enrichment score,[11],1
TIPMPAGYFMPIFVYGAAIGSLFGETLSFIFPEGIVAGGIT [R438S R438S],mutation enrichment score,[9]; paper call: no_effect,5
GTGGKSPRLTQSSGFFGNLSIVTNLDDSNWAAAFSSQRSGL [M101I M101I],mutation enrichment score,[9]; paper call: no_effect,0.77
AEKNPVGLARNEPDPLEKPNWPDTSFIWFLNPLKSARYFLW [R1939W R1939W],mutation enrichment score,[9]; paper call: no_effect,2
